Substitutions are numbered along the chain they refer to. Names and notes keep the numbering of the source.
B1: Gly^8-Glu^22-GLP-1(7-37)-1.5L-IgG4 (S228P, F234A, L235A) (Fc fusion)
chain: HGEGTFTSDVSSYLEEQAAKEFIAWLVKGRGGSGGGGSGGGGSGGGGSGGGGSA[letters of human IgG4 Fc with S228P F234A L235A (EU numbers) left out]
B2: Gly^8-Glu^22-GLP-1(7-37)-1L-IgG4 (S228P, F234A, L235A) (Fc fusion)
chain: HGEGTFTSDVSSYLEEQAAKEFIAWLVKGRGGGGGSGGGGSGGGGSA[letters of human IgG4 Fc with S228P F234A L235A (EU numbers) left out]
B3: Gly^8-Glu^22-Gly^36-GLP-1(7-37)-2L-IgG4 (S228P, F234A, L235A) (Fc fusion)
chain: HGEGTFTSDVSSYLEEQAAKEFIAWLVKGGGGGGGSGGGGSGGGGSGGGGSGGGGSGGGGSA[letters of human IgG4 Fc with S228P F234A L235A (EU numbers) left out]
B4: Gly^8-Glu^22-GLP-1(7-37)-2L-IgG4 (S228P, F234A, L235A) (Fc fusion)
chain: B3 chain with G30R
B5: Gly^8-Glu^22-Gly^36-GLP-1(7-37)-1L-IgG4 (S228P, F234A, L235A) (Fc fusion)
chain: B2 chain with R30G

biological target: T1, human GLP-1 receptor (human, UniProt P43220); test: cell-based or functional assay

How did the “Activity (EC50 relative to Val^8-GLP-1(7-37)OH), CRE-BLAM beta-lactamase reporter” value turn out when B1 was run?
The value was 314%.

With B2 as the binder, how does the “Activity (EC50 relative to Val^8-GLP-1(7-37)OH), CRE-BLAM beta-lactamase reporter” value read?
The value was 468%.

For B3, which “Activity (EC50 relative to Val^8-GLP-1(7-37)OH), CRE-BLAM beta-lactamase reporter” value is on record?
The value was 441%.

Which “Activity (EC50 relative to Val^8-GLP-1(7-37)OH), CRE-BLAM beta-lactamase reporter” value does the source give for B4 here?
Its value is 301%.

biological target: T1, human GLP-1 receptor; test: cell-based or functional assay; remark: another data set of the same source

Which “Activity (EC50 relative to Val^8-GLP-1(7-37)OH), CRE-Luciferase reporter” value does the source give for B1 here?
Its value is 595%.

With B2 as the binder, how does the “Activity (EC50 relative to Val^8-GLP-1(7-37)OH), CRE-Luciferase reporter” value read?
Its value is 1120%.

For B3, which “Activity (EC50 relative to Val^8-GLP-1(7-37)OH), CRE-Luciferase reporter” value is on record?
Its value is 398%.

Which “Activity (EC50 relative to Val^8-GLP-1(7-37)OH), CRE-Luciferase reporter” value does the source give for B5 here?
The value was 417%.

B4 was tested. Which “Activity (EC50 relative to Val^8-GLP-1(7-37)OH), CRE-Luciferase reporter” value did it give?
Its value is 535%.

Source: patent publication US8273854B2, “GLP-1 analog fusion proteins” (Eli Lilly and Company, dated 2012)
